The source gives many values for each of these; only a part stands here.
System: 301 cancer cell lines from different tumor types (OncoPanel; HD Biosciences)
Assay: 2D cell viability inhibition assay (CellTiter-Glo) in cancer cell line panel
Assay type: cell-based
Conditions: in %
Experimental: In a larger screening study, compound 1 was evaluated across a broad cancer cell line panel (OncoPanel; HD Biosciences) composed of 301 cancer cell lines from different tumor types.
2D cell viability inhibition assays were performed in multiwell plates seeded with cells from the panel. After seeding, the plates were cultured overnight in a humidified incubator at 37° C. to promote adherence. Assays were initiated in individual wells by adding either DMSO as a vehicle control, growth media as a blank, or serially diluted compound 1 (10 μM to 0.0005 μM with 1:3 serial dilution). Cultures were incubated for 168 hours after which the number of viable cells in each test well was assessed using the CellTiter-Glo® Luminescent Cell Viability Assay. Luminescence readouts were performed using an EnVision® Multilabel Reader and the compound 1 readouts were normalized to the DMSO control readouts, expressed as a percent of the control. Outliers were flagged out by visual inspection. Percent of control was plotted against the corresponding compound 1 concentration and the absolute IC50 value was determined using four-parameter logistic non-linear regression as the concentration where inhibition was 50% of the control. For maximum inhibition <50%, the absolute IC50 was reported as >10. In addition to EC50 and IC50, AUC was determined and was normalized to the area corresponding to theoretical no-inhibition (the rectangular area defined by the compound dose range and 0 to 100 in y). Emax was recorded as the minimum in y with the compound dose range. For those cell lines where Emax>40, EC50 was manually set to 10 μM. A hierarchical clustering algorithm based on Euclidean distance between the standardized input values and “Ward.D” method as implemented in R hclust function was used to visualize the compound 1 cellular potency data. The sensitive/moderate/resistant calls for each cell line was determined by visually inspecting the resulting clustering dendrogram. All the analyses were done in R Core Team.

CC(C)c1ccc(N(C)c2ccc3c(c2)OCC[C@H]3CNc2cnccc2C(=O)O)cc1 [Compound 1, 3-({[(4R)-7-{methyl[4-(propan-2-yl)phenyl]amino}-3,4-dihydro-2H-1-benzopyran-4-yl]methyl}amino)pyridine-4-carboxylic acid]
Emax (7860 cell line): 22.93 | Emax (A204, soft tissue, NS, 168 hours): 58.91 | Emax (A549 cell line): 31.11 | Emax (A2058 cell line): 30.64 | Emax (A2780 cell line): 3.567 | Emax (ACHN cell line): 2.197 | Emax (ASPC1 cell line): 32.81 | Emax (AZ521 cell line): 8.891 | Emax (BICR18 cell line): 4.762 | Emax (BICR22 cell line): 54.76 | Emax (BT20, breast, ductal carcinoma, 168 hours): 78.79 | Emax (BT474, breast, ductal carcinoma, 168 hours): 53.88 | Emax (BXPC3 cell line): 36.5952 | Emax (C2BBE1, large intestine, adenocarcinoma, 168 hours): 59.34 | Emax (C32 cell line): 1.007 | Emax (CAL27, upper aerodigestive tract, squamous cell carcinoma, 168 hours): 74.68 | Emax (CALU1, lung, squamous cell carcinoma, 168 hours): 118.4694 | Emax (CALU3, lung, adenocarcinoma, 168 hours): 50.88 | Emax (CAPAN1 cell line): 40.2242 | Emax (CAPAN2, pancreas, ductal carcinoma, 168 hours): 75.02 | Emax (CCFSTTG1, central nervous system, astrocytoma, 168 hours): 78.9 | Emax (CHL1 cell line): 13.22 | Emax (COLO320HSR cell line): 0.9007 | Emax (COLO679 cell line): 24.72 | Emax (COLO829 cell line): 47.96 | Emax (CORL279 cell line): 11.3227 | Emax (DAOY, central nervous system, NS, 168 hours): 83.4 | Emax (DLD1 cell line): 5.54 | Emax (DMS53, lung, small cell carcinoma, 168 hours): 49.07 | Emax (DMS79 cell line): 27.09 | Emax (DMS153 cell line): 50.81 | Emax (DMS273 cell line): 16.58 | Emax (ECGI10 cell line): 39.23 | Emax (G361, skin, NS, 168 hours): 89.52 | Emax (G401 cell line): 3.808 | Emax (GAK cell line): 47.7 | Emax (GI1 cell line): 9.191 | Emax (GP2D cell line): 20.32 | Emax (HCC38, breast, ductal carcinoma, 168 hours): 93.61 | Emax (HCC78 cell line): 23.4 | Emax (HCC95 cell line): 17.04 | Emax (HCC827, lung, adenocarcinoma, 168 hours): 74.84 | Emax (HCC1143 cell line): 50.38 | Emax (HCC1419, breast, ductal carcinoma, 168 hours): 52.42 | Emax (HCC1428, breast, NS, 168 hours): 59.9889 | Emax (HCC1937, breast, ductal carcinoma, 168 hours): 80.9493 | Emax (HCC1954 cell line): 43.63 | Emax (HCC2935 cell line): 50.08 | Emax (HCT116 cell line): 35.92 | Emax (HEP3B217 cell line): 47.2 | Emax (HEPG2 cell line): 37.76 | Emax (HPAC cell line): 20.85 | Emax (HS294T cell line): 28.14 | Emax (HS688AT, skin, NS, 168 hours): 98.47 | Emax (HS695T, skin, NS, 168 hours): 74.11 | Emax (HS739T, breast, NS, 168 hours): 78.35 | Emax (HS839T, skin, NS, 168 hours): 101.2434 | Emax (HS852T, skin, NS, 168 hours): 78.51 | Emax (HSC3 cell line): 47.26 | Emax (HT29 cell line): 29.83 | Emax (HT144, skin, NS, 168 hours): 81.61 | Emax (HT1376 cell line): 18.92 | Emax (HUH28, biliary tract, NS, 168 hours): 92.15 | Emax (HUTU80 cell line): 8.151 | Emax (J82 cell line): 48.7 | Emax (JEKO1 cell line): 0.08738 | Emax (JIMT1 cell line): 13.46 | Emax (K562 cell line): 4.383 | Emax (KALS1 cell line): 49.79 | Emax (KASUMI1, haematopoietic and lymphoid tissue, acute myeloid leukaemia, 168 hours): 81.08 | Emax (KATOIII cell line): 12.88 | Emax (KG1, haematopoietic and lymphoid tissue, acute myeloid leukaemia, 168 hours): 80.44 | Emax (KNS81 cell line): 58.5801 | Emax (KURAMOCHI, ovary, undifferentiated carcinoma, 168 hours): 73.85 | Emax (KYSE70, oesophagus, squamous cell carcinoma, 168 hours): 50.19 | Emax (KYSE150 cell line): 9.557 | Emax (KYSE270 cell line): 7.793 | Emax (KYSE510 cell line): 0.5797 | Emax (LNCAP cell line): 21.5094 | Emax (LOUCY cell line): 2.522 | Emax (LOVO cell line): 47.95 | Emax (LU99, lung, large cell carcinoma, 168 hours): 64.66 | Emax (LUDLU1 cell line): 28.03 | Emax (MALME3M, skin, NS, 168 hours): 94.08 | Emax (MC116 cell line): 5.43 | Emax (MCF7 cell line): 43.7 | Emax (MDAMB157, breast, ductal carcinoma, 168 hours): 64.71 | Emax (MDAMB175VII, breast, ductal carcinoma, 168 hours): 60.66 | Emax (MDAMB231, breast, NS, 168 hours): 55.94 | Emax (MDAMB361, breast, NS, 168 hours): 94.55 | Emax (MDAMB415, breast, NS, 168 hours): 83.39 | Emax (MDAMB436, breast, NS, 168 hours): 70.42 | Emax (MDAMB468, breast, NS, 168 hours): 50.87 | Emax (MEWO, skin, NS, 168 hours): 56.56 | Emax (MKN1 cell line): 17.76 | Emax (MPP89 cell line): 51.43 | Emax (MV411 cell line): 0.05647 | Emax (NAMALWA cell line): 6.457 | Emax (NCIH23 cell line): 27.39 | Emax (NCIH82 cell line): 4.91 | Emax (NCIH441, lung, adenocarcinoma, 168 hours): 67.49 | Emax (NCIH446 cell line): 24.17 | Emax (NCIH520 cell line): 10.58 | Emax (NCIH596, lung, mixed adenosquamous carcinoma, 168 hours): 61.34 | Emax (NCIH929 cell line): 24.32 | Emax (NCIH1048 cell line): 7.15 | Emax (NCIH1155 cell line): 0.2638 | Emax (NCIH1355 cell line): 35.38 | Emax (NCIH1395, lung, adenocarcinoma, 168 hours): 70.68 | Emax (NCIH1435, lung, non-small cell carcinoma, 168 hours): 60.04 | Emax (NCIH1563, lung, adenocarcinoma, 168 hours): 93.507 | Emax (NCIH1573, lung, adenocarcinoma, 168 hours): 53.57 | Emax (NCIH1618 cell line): 0.4886 | Emax (NCIH1623 cell line): 30.06 | Emax (NCIH1650, lung, bronchioloalveolar adenocarcinoma, 168 hours): 68.07 | Emax (NCIH1666 cell line): 21.66 | Emax (NCIH1734 cell line): 54.9 | Emax (NCIH1755, lung, adenocarcinoma, 168 hours): 123.3293 | Emax (NCIH1836 cell line): 10.41 | Emax (NCIH1838, lung, non-small cell carcinoma, 168 hours): 60.0585 | Emax (NCIH1930 cell line): 36.33 | Emax (NCIH1975 cell line): 17.89 | Emax (NCIH2009, lung, adenocarcinoma, 168 hours): 55.69 | Emax (NCIH2023 cell line): 13.34 | Emax (NCIH2081 cell line): 17.9809 | Emax (NCIH2087 cell line): 21.98 | Emax (NCIH2122 cell line): 18.7 | Emax (NCIH2171 cell line): 16.53 | Emax (NCIH2172 cell line): 37.97 | Emax (NCIH2228 cell line): 44.27 | Emax (NCIH2286 cell line): 11.2 | Emax (NCIN87 cell line): 10.8 | Emax (NIHOVCAR3, ovary, NS, 168 hours): 59.47 | Emax (NMCG1, central nervous system, NS, 168 hours): 47.06 | Emax (NOMO1 cell line): 8.172 | Emax (ONS76, central nervous system, NS, 168 hours): 54.63 | Emax (OSRC2 cell line): 52.3524 | Emax (OVISE cell line): 41.61 | Emax (P31FUJ cell line): 7.305 | Emax (PANC1 cell line): 12.03 | Emax (PANC0213 cell line): 32.945 | Emax (PECAPJ34CLONEC12 cell line): 11.8 | Emax (PF382 cell line): 8.405 | Emax (PLCPRF5 cell line): 21.67 | Emax (RCM1 cell line): 42.55 | Emax (REH cell line): 0.2336 | Emax (RERFLCMS cell line): 38.16 | Emax (RL cell line): 1.954 | Emax (RPMI7951, skin, NS, 168 hours): 66.31 | Emax (RT11284 cell line): 18.2 | Emax (SAOS2, bone, NS, 168 hours): 92.52 | Emax (SCC9, upper aerodigestive tract, squamous cell carcinoma, 168 hours): 69.25 | Emax (SCC15, upper aerodigestive tract, squamous cell carcinoma, 168 hours): 90.39 | Emax (SCC25, upper aerodigestive tract, squamous cell carcinoma, 168 hours): 62.3079 | Emax (SKCO1 cell line): 34.7288 | Emax (SKHEP1, liver, adenocarcinoma, 168 hours): 44.3029 | Emax (SKLU1 cell line): 38.28 | Emax (SKMEL2 cell line): 35.37 | Emax (SKMEL3 cell line): 46.9 | Emax (SKMEL24, skin, NS, 168 hours): 58.12 | Emax (SKMEL28 cell line): 4.92 | Emax (SKMEL31, skin, NS, 168 hours): 59.49 | Emax (SKMES1 cell line): 30.66 | Emax (SKNSH, autonomic ganglia, NS, 168 hours): 53.89 | Emax (SKOV3, ovary, adenocarcinoma, 168 hours): 96.03 | Emax (SNGM cell line): 26.88 | Emax (SNU5 cell line): 32.15 | Emax (SNU16 cell line): 7.431 | Emax (SNU668 cell line): 16.0231 | Emax (SNU761 cell line): 38.07 | Emax (SNU878 cell line): 52.15 | Emax (SNU886 cell line): 48.35 | Emax (SNUC1, large intestine, adenocarcinoma, 168 hours): 55.45 | Emax (SNUC2A cell line): 34.42 | Emax (SUPT1 cell line): 48.11 | Emax (SW48 cell line): 37.9499 | Emax (SW579, thyroid, anaplastic carcinoma, 168 hours): 79.98 | Emax (SW620 cell line): 9.079 | Emax (SW837, large intestine, adenocarcinoma, 168 hours): 46.73 | Emax (SW1271, lung, small cell carcinoma, 168 hours): 65.38 | Emax (SW1417, large intestine, adenocarcinoma, 168 hours): 91.96 | Emax (SW1710 cell line): 25.48 | Emax (SW1990 cell line): 49.23 | Emax (T24, urinary tract, transitional cell carcinoma, 168 hours): 75.74 | Emax (T84 cell line): 21.54 | Emax (TALL1 cell line): 4.509 | Emax (TE1, oesophagus, squamous cell carcinoma, 168 hours): 84.54 | Emax (TE8, oesophagus, squamous cell carcinoma, 168 hours): 72.1307 | Emax (TE11 cell line): 10.16 | Emax (TE14 cell line): 12.67 | Emax (TE15, oesophagus, squamous cell carcinoma, 168 hours): 89.04 | Emax (TF1 cell line): 11.55 | Emax (THP1 cell line): 12.48 | Emax (U937 cell line): 1.946 | Emax (UACC812, breast, ductal carcinoma, 168 hours): 62.67 | Emax (UMUC3 cell line): 35.05 | Emax (VCAP, prostate, adenocarcinoma, 168 hours): 62.6 | Emax (WM115 cell line): 36.93 | Emax (WM2664 cell line): 37.49 | Emax (WSUDLCL2 cell line): 0.6346 | Emax (YD38 cell line): 13.64
